# Results: PubChem BioAssay (NCATS)
# This list was built around the results that the source calls inconclusive (neither active nor inactive); the mix of calls is not that of the screen. For part of these data: No potency is given beside an inconclusive call; the fits are too rough. Active and inactive are the calls of the source. Unless noted, calls come from the whole dose curve; as a rule, active = well fitted curve in the direction sought with a large enough effect; inconclusive = small, poorly fitted or top-dose-only effect, or another doubt; inactive = no such curve, though single readings can be large; an effect the other way counts as inactive or inconclusive.
# What was measured:
# [1] = AP1 Signaling Pathway (AID 357; active = well fitted curve in either direction with a large enough effect, not every such curve was filed as active; inconclusive = small, poorly fitted or top-dose-only effect, or another doubt;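 note: ME-180 reporter cells stimulated with EGF at its EC50 level; top concentration of the series differs between compounds; % is set by controls: 0 for no effect and ±100 for the full control effect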); settings: ME-180 AP-1-bla reporter, EGF-induced, beta-lactamase ratio, 5 h; at 38 µM (top of the series)
# In short: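 AP-1-bla ME-180 cells, Opti-MEM + 0.5% dialyzed FBS, plated overnight 37 °C. Cpd titration + EC50 EGF, 5 h 37 °C. CCF4 2.5 h RT; ex 405, em 460/530 ratio → %activity, AC50.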
# [2] = molecular target: Cytochrome P450 2C9 (Homo sapiens) (UniProt P11712); test: qHTS Assay for Inhibitors and Substrates of Cytochrome P450 2C9 (AID 883); settings: recombinant CYP2C9, luciferin-H luminescence, 60 min; series mostly up to 57.1 µM; note: % is set by controls: 0 for no effect and ±100 for the full control effect; nearly all actives have a fitted effect of over 60% in size
# Sequence of UniProt P11712 (P11712 whole entry, looked up): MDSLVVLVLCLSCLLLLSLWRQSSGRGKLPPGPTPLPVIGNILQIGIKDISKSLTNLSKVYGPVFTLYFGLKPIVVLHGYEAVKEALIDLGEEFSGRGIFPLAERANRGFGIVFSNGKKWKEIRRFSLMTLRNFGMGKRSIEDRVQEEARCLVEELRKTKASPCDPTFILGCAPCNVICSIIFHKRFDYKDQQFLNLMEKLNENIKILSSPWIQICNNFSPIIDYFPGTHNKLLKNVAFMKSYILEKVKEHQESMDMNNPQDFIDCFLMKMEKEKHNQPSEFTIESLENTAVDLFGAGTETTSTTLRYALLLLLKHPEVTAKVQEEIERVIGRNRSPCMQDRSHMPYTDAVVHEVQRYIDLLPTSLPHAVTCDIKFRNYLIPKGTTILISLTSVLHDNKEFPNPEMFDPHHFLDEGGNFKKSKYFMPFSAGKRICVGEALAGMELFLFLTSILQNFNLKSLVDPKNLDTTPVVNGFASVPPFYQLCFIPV
# In short: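 Luminescent read-out of deoxyluciferin hydroxylation, normalized to 57uM sulphaphenazole (AC100). Reaction: 10nM enzyme, 100uM Luciferin-H (equal to KM), 25mM KPO4, 10 min compound preincubation, then 60 min with NADPH regeneration, both at 37C.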
# [3] = qHTS for Activators of Parkin Expression: LOPAC Validation Assay (NLuc Reporter) (AID 720572;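 note: 0% = DMSO and 100% = positive control compound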); settings: Parkin promoter NanoLuc reporter cells, luminescence; series mostly up to 46.1 µM
# In short: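 Parkin promoter-driven FLuc/NLuc neuronal reporter cells; 24 h plating, 7-pt dose response, 24 h at 37 C/5% CO2; FLuc then NanoLuc reagent, 10 min each, luminescence; DMSO/positive control normalized.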
# [4] = molecular target: Parathyroid hormone/parathyroid hormone-related peptide receptor (Homo sapiens) (UniProt Q03431); test: qHTS for PTHR1 Agonists: Optimization Screen against the NCGC LOPAC library (AID 1347079); settings: HEK293 GP2 PTHR1 GloSensor cAMP luminescence, 1 h; series mostly up to 57.1 µM;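 note: GloSensor cAMP luminescence in HEK-293 GP2 cells expressing human PTHR1 with IBMX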; note: potency is the fitted concentration of half-maximal effect; for activation: 0% is about no effect
# Sequence of UniProt Q03431 (Q03431 whole entry, looked up): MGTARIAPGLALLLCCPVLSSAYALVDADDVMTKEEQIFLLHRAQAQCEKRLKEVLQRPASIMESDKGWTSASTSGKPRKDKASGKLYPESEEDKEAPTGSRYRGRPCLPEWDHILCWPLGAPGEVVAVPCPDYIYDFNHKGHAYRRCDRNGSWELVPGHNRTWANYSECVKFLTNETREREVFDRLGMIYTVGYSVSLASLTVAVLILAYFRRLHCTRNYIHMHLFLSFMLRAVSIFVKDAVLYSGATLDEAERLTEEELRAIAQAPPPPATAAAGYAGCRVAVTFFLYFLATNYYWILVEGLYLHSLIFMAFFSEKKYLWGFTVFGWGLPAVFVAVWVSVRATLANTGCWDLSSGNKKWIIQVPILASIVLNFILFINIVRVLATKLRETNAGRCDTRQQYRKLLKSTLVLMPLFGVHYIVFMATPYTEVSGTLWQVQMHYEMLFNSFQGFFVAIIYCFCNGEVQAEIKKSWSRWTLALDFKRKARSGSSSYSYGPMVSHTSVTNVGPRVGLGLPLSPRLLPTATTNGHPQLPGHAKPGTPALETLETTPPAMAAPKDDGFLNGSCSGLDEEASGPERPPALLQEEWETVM
# In short: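 Compounds were tested across a qHTS titration. PTHR1-expressing GP2 cells report cAMP rises via GloSensor luminescence after 1 hr compound exposure at 37C with IBMX present.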
# [5] = Cytometric Cell-Based qHTS for Inhibitors of the mTORC1 Signaling Pathway in MEF (Tsc2-/-, p53-/-) Cells (AID 2660); settings: mTORC1 pathway cytometry; series mostly up to 38.3 µM;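 note: Tsc2 and p53 null MEFs carrying empty vector with compound for 24 h; percent of cells above a phospho-rpS6 to PI ratio cutoff in each well; plate controls were DMSO for no effect and rapamycin for full effect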
# In short: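 Immunofluorescence qHTS of rpS6 Ser235/236 phosphorylation: MEFs (Tsc2-/-, p53-/-) treated 24 h, 37 C, in DMEM + 10% FBS. Alexa-488 signal normalized to PI count, referenced to rapamycin (7.5 nM) and DMSO; PI cell number recorded for viability.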
# [6] = Confirmatory qHTS for small molecule stabilizers of the endoplasmic reticulum resident proteome: Secreted ER Calcium Modulated Protein (SERCaMP) assay (AID 1508628); settings: SERCaMP secreted luciferase ER calcium/proteostasis reporter; series mostly up to 76.3 µM; note: nearly all actives have a fitted effect of over 40% in size; note: potency is the fitted concentration of half-maximal effect
# In short: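 We seeded SH-SY5Y-GLuc-SERCaMP cells, added compounds (three concentrations in the primary run, eleven up to 76.6 uM in confirmation), incubated 16 h, depleted ER calcium with thapsigargin, and read luciferase 4 h later.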
# [7] = Cell Viability qHTS for small molecule stabilizers of the endoplasmic reticulum resident proteome (AID 1508629); settings: cell viability counter-screen, 100 nM thapsigargin for final 4 h;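 note: compound exposure about 46 h in total before the viability read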; note: potency is the fitted concentration of half-maximal effect;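 for max response: human SH-SY5Y neuroblastoma cells carrying the GLuc-SERCaMP reporter; % is set by controls: 0 for no effect and ±100 for the full control effect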
# [8] = qHTS Assay for Identification of Small Molecule Agonists for Hypoxia Response Element Signaling Pathway (AID 914; active = well fitted activation curve with a large enough effect in the signal ratio, with a control signal flat, not every such curve was filed as active; inconclusive = small, poorly fitted or top-dose-only effect, or effect the other way, or a change in a side signal; the % refers to the signal ratio; note: potency is the fitted concentration of half-maximal effect; for activation: top concentration of the series differs between compounds; % of control where 0% means no effect); settings: ME-180 (cervical carcinoma) HRE-bla reporter, beta-lactamase ratio, CoCl2, 17 h; activation: hits give high values
# In short: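 AC50 values come from titration-series %Activity, taken as the 460/530nm ratio of CCF4 fluorescence (excitation 405nm). CellSensor HRE-bla ME-180 cells were treated 17 hours at 37 C with compound plus an EC50 level of CoCl2.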
# [9] = molecular target: ATP-dependent DNA helicase Q1 (Homo sapiens) (UniProt P46063); test: qHTS Validation Assay for Inhibitors of RecQ-Like Dna Helicase 1 (RECQ1) (AID 2353); settings: recombinant RECQ1 helicase DNA unwinding assay; series mostly up to 25.6 µM; note: potency is the fitted concentration of half-maximal effect
# Sequence of UniProt P46063 (P46063 whole entry, looked up): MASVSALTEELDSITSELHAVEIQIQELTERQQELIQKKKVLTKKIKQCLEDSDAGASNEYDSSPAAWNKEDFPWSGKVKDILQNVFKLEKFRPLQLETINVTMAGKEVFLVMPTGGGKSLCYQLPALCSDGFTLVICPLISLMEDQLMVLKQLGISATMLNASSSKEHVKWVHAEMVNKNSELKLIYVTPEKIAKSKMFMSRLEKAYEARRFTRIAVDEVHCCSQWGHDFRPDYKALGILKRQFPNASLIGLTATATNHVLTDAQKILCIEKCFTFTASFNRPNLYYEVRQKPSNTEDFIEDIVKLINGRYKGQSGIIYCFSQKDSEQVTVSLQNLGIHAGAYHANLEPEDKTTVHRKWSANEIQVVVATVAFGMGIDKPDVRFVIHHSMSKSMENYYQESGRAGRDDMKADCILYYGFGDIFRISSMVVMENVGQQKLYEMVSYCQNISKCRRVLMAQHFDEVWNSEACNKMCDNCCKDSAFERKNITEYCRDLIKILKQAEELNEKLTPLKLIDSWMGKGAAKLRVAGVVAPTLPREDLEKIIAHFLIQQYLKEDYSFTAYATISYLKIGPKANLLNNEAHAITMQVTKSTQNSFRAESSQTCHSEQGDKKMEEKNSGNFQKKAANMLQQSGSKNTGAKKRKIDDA
# In short: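 50 nM RECQ1T1 preincubated 15 min with compound in Tris pH 8.0 buffer with MgCl2, DTT, Tween-20 and 2.5 ug/ml poly(dI-dC); started with 200 nM TAMRA/BHQ-2 forked duplex and 2 mM ATP. Unwinding read as fluorescence (525/598 nm), two reads 2 h apart.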
# [10] = molecular target: Thioredoxin reductase 1, cytoplasmic (Rattus norvegicus) (UniProt O89049); test: qHTS Assay for Substrates of Mammalian Selenoprotein Thioredoxin Reductase 1 (TrxR1) (AID 488772); settings: purified TrxR1, NADPH consumption substrate assay; series mostly up to 57.1 µM;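 note: NADPH fluorescence in the first read after selenite addition and not the 8 min delta; 0% is about no effect; a drop in NADPH fluorescence below the no-compound background marks a TrxR1 substrate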
# Sequence of UniProt O89049 (O89049 whole entry, looked up): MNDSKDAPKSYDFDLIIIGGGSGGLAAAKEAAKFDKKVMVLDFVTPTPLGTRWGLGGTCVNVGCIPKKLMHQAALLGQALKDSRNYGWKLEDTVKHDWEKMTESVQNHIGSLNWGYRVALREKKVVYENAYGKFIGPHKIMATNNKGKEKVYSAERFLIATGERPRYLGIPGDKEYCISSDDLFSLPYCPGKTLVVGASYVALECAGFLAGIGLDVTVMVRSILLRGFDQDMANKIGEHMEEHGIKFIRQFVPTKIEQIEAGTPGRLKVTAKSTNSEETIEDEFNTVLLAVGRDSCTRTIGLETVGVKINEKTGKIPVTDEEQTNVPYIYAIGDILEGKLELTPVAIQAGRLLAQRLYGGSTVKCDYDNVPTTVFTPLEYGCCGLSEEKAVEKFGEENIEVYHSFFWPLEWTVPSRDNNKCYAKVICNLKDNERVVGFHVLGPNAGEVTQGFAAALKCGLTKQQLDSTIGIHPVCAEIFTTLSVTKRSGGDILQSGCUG
# In short: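 Quantitative HTS in Tris-HCl buffer at pH 7.5 with EDTA and Tween-20, using rat TrxR1, 400 uM NADPH and 400 uM selenite (final). A fall in initial NADPH fluorescence relative to background marked substrate behaviour.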
# [11] = Primary qHTS for inhibitors of La Crosse Virus (LACV) - induced cell death in SH-SY5Y cells (AID 1508616); settings: SH-SY5Y LACV cytopathicity rescue, ATP luminescence, 6 d; series mostly up to 4.29 µM;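 note: top concentration of the series differs between compounds; 0% = infected DMSO wells and 100% = uninfected DMSO wells; higher means more rescue of cells from virus-induced death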
# In short: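 Luminescent ATP readout (ATPLite 1step, 5 min room temperature) measured rescue from LACV-induced death after 6 days of infection at 0.01 MOI; normalized to infected DMSO wells and uninfected DMSO wells.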
# [12] = qHTS for Activators of Parkin Expression: LOPAC Validation Assay (FLuc Reporter) (AID 720573;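 note: 0% = DMSO and 100% = positive control compounds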); settings: Cell line, PRKN promoter firefly luciferase reporter; series mostly up to 46.1 µM
# In short: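 A neuronal cell line harbouring FLuc and NLuc reporters behind the Parkin promoter was exposed to compounds for 24 h. Firefly luciferase signal, measured after 10 min with detection reagent, was scaled to DMSO and positive-control wells.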
# [13] = molecular target: Glucagon-like peptide 1 receptor (Homo sapiens) (UniProt P43220); test: qHTS of GLP-1 Receptor Agonists: LOPAC Validation (AID 624148); settings: GLP-1R agonist cell assay; activation: at 46.1 µM (top of the series);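 note: luminescence from a luciferase reporter switched on by cAMP; 0% is about no effect; higher luminescence signal means agonism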
# Sequence of UniProt P43220 (P43220 whole entry, looked up): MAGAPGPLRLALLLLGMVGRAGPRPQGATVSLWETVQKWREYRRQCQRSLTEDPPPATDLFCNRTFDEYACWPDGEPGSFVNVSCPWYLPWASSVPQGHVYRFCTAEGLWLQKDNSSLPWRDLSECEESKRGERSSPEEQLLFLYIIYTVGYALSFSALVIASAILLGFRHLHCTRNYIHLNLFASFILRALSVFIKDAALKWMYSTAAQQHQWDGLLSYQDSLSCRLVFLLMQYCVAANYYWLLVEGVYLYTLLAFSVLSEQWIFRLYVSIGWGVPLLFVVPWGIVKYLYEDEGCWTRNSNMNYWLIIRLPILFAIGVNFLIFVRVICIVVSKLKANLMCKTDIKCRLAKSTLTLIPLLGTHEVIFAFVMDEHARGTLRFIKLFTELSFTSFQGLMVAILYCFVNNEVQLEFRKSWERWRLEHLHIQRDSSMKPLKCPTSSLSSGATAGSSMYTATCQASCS
# In short: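 Agonism scored as increased luciferase luminescence driven by cAMP in HEK293 clones carrying GLP-1R. Cells settled 12 hours, received compound for 4-6 hr at 37 deg C, 5% CO2, and were read after 12 min detection reagent at RT.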
# [14] = tested on: Zika virus NS2B-NS3 protease (unlinked complex); test: Confirmatory screen GU AMC qHTS for Zika virus inhibitors (AID 1347153); settings: Recombinant NS2B-NS3 protease, AMC substrate fluorescence; series mostly up to 57.1 µM;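 note: enzyme at 25 nM with substrate at 10 µM below its Km of 18.3 µM; potency is the fitted concentration of half-maximal effect; nearly all actives have a fitted effect of over 70% in size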
# In short: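 Compounds were preincubated 15 min at room temperature with 25 nM noncovalent NS2B-NS3 protease at pH 8.0; AMC substrate added at 10 microM and 15-min fluorescence gain (340/450 nm) converted to percent inhibition, fitted 4-parameter.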
# [15] = Confirmatory screen NINDS Rhodamine qHTS for Zika virus inhibitors (AID 1347161); settings: purified enzyme assay, Rhodamine110 substrate fluorescence, 15 min; series mostly up to 114 µM; note: nearly all actives have a fitted effect of over 60% in size; note: potency is the fitted concentration of half-maximal effect;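 for activity change, negative = inhibition: purified Zika NS2B-NS3 protease with linked NS2B cofactor domain and Rhodamine110 peptide substrate; plate controls were no-inhibitor control for no effect and no-enzyme control for full effect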
# In short: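 Enzyme (25 nM, linked NS2B-NS3) was preincubated 15 min with compound in 10 mM Tris-HCl pH 8.0, 0.01% Tween 20. Rhodamine110 substrate (1.5 microM) was then added and fluorescence read at start and after 15 min.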
# [16] = molecular target: Glutathione peroxidase 1 (Homo sapiens) (UniProt P07203); test: Primary qHTS Assay for Inhibitors of Recombinant Selenoprotein Glutathione Peroxidase 1 (GPX1) (AID 1845191); settings: recombinant GPX1, GR-coupled NADPH fluorescence, 15 min; series mostly up to 48.8 µM; note: potency is the fitted concentration of half-maximal effect; nearly all actives have a fitted effect of over 65% in size
# Sequence of UniProt P07203 (P07203 whole entry, looked up): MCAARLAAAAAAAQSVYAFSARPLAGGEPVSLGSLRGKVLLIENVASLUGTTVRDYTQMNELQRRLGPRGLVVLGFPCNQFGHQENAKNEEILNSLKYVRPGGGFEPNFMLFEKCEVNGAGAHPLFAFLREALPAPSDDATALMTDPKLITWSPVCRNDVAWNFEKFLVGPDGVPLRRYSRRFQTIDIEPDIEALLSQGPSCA
# In short: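 10 nM GPX1 + cpd, 30 min RT; start w/ 1 mM GSH, 0.5 mM cumene hydroperoxide, 0.5 mM NADPH, 100 nM GR, 0.01% BSA; buffer 50 mM Tris-HCl pH 7.5, 2 mM EDTA, 150 mM NaCl; Fl 340/450, 0 & 15 min.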
# [17] = Validation of Assay for Modulators of Lamin A Splicing (AID 1459; active = well fitted curve in the direction sought with a large enough effect in the signal ratio; inconclusive = small, poorly fitted or top-dose-only effect, or effect the other way, or a change in a side signal; inactive = no such curve, though single readings can be large or run the other way; the % refers to the signal ratio; note: potency is the fitted concentration of half-maximal effect); settings: Lamin A splicing dual RFP/GFP fluorescence reporter; Potency: ratio unless noted; ratio change, both ways: at 9.22 µM unless noted
# In short: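 Splicing correction is reported by an EGFP-containing lamin A minigene in stably transfected S3 HeLa cells, while DsRed2 controls for viability and nonspecific signal. Cells are exposed to compounds for 48 hrs before the GFP over RFP ratio is taken.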
# Tags give direction and shape of the fitted curve or compound fluorescence and quenching.
compound,measurement,setting,value
Cn1cnc2c(NCc3ccccc3)nc(NCCO)nc21,"activity change, negative = inhibition",[1],inconclusive: -39% [inhibitor]
same,Potency,[2],inactive
same,Potency,[3],inactive
O=[N+]([O-])c1cccc2c(Br)[nH]nc12,Potency,[2],inactive
same,Potency,[4],"inconclusive [activator, partial curve, poor fit]"
CN1C2CCC1CC(OC(=O)c1c[nH]c3ccccc13)C2 (stereo not drawn),Potency,[5],inactive
same,Potency,[6],"inconclusive [inhibitor, partial curve, poor fit]"
same,Potency,[7],"inconclusive [cytotoxic, partial curve]"
Nc1ncnc2c1nc(Br)n2C1OC2COP(=O)(O)O[C@@H]2C1O (stereo partly drawn),Potency,[5],inactive
N#C/C(=C\c1ccc(O)c(O)c1)C(=O)NCCCNC(=O)/C(C#N)=C/c1ccc(O)c(O)c1,Potency,[6],"inconclusive [inhibitor, partial curve]"
same,Potency,[7],"inconclusive [cytotoxic, partial curve]"
CCCCCCC/C=C\CCCCCCCCC(=O)O,activation,[8],inactive: -14%
same,Potency,[9],"inconclusive [inhibitor, single point]"
same,Potency,[10],inactive
Cc1nc(N=Nc2cc(S(=O)(=O)O)c3cc([N+](=O)[O-])cc(S(=O)(=O)O)c3c2)c(COP(=O)(O)O)c(C=O)c1O,Potency,[2],inactive
same,Potency,[9],active: 11.2 µM
same,Potency,[11],inactive
CCCCCCCCCCCCCCC[C@H](O)[C@H](N)CO,Potency,[11],inactive
same,Potency,[6],inactive
same,max response,[7],inactive: -0.696%
CC(C)[C@@H]1CC[C@@H](C)C[C@@H]1P(=O)(c1ccccc1)c1ccccc1,Potency,[12],inactive
Cn1c(=O)c2[nH]c(-c3ccc(S(=O)(=O)O)cc3)nc2n(C)c1=O,Potency,[13],inactive
same,Potency,[14],"inconclusive [inhibitor, full curve, poor fit]"
same,Potency,[15],"inconclusive [inhibitor, partial curve]"
same,Potency,[16],active: 10 µM
CCN1C(=O)C=CC1=O,activation,[8],inactive: 23.4%
same,Potency,[17],"inconclusive [inhibitor, single point]"
Cc1nc(N=Nc2ccc(S(=O)(=O)O)cc2S(=O)(=O)O)c(COP(=O)(O)O)c(C=O)c1O,Potency,[15],"inconclusive [inhibitor, full curve]"
same,Potency,[6],inactive
same,Potency,[7],"inconclusive [rising, full curve, poor fit]"
c1ccc(C(NCc2cccnc2)(c2ccccc2)c2ccccc2)cc1,Potency,[4],inactive
C[C@H](O)C(=O)C1=Nc2c(nc(N)[nH]c2=O)NC1,Potency,[8],"inconclusive [inhibitor, full curve]"
COc1ccc(/C=C/c2nc(NCCCN(C)C)c3ccccc3n2)cc1,Potency,[15],inactive
